Measured values reported in PubChem BioAssay AID624417 (National Center for Advancing Translational Sciences (NCATS), 2012).
Hit rate of the full screen: of about 410,000 compounds, about 6,400 (1.6%) were called active. Inconclusive means that the source gave no clear call. Such entries were picked first, then a sample of the others. The call rests on the fitted dose curve; in most records, active means well fitted inhibition curve with a large enough effect; inconclusive means small, poorly fitted or top-dose-only effect; inactive means no such curve, though single readings can be large or run the other way. No potency is given beside an inconclusive call; the fits are too rough.

Each molecule was assayed against Glucagon-like peptide 1 receptor (Homo sapiens) (UniProt P43220) (assay: qHTS of GLP-1 Receptor Inverse Agonists (Inhibition Mode)). Details: HEK293 GLP-1R CRE-luciferase, luminescence, 24 h, GLP-1R form is constitutively active; activity change, negative = inhibition: at 38.3 µM (top of the series) unless noted.
Chain of UniProt P43220 (P43220 whole entry, looked up): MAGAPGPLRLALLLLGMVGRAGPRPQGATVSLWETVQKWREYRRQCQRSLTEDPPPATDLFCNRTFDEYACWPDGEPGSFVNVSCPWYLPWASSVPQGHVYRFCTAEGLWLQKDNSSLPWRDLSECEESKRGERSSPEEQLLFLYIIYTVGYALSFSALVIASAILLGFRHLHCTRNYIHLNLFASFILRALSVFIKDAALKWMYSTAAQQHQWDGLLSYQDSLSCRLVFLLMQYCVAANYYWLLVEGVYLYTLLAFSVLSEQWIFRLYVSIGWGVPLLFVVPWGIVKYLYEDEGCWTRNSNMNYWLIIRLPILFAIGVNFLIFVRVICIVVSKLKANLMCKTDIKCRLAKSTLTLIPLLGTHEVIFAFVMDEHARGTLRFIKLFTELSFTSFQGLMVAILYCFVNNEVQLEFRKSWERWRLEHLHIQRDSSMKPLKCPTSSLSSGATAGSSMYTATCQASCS
Outline: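 Inverse agonists were sought by their lowering of basal cAMP reporter luciferase output in HEK293 cells stably carrying constitutively active human GLP-1R, after 24 h compound treatment.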
Further: nearly all actives have a fitted effect of over 55% in size.
On the % scale 0 is the no-effect control and ±100 the full control effect; potency means the concentration at half of the fitted maximal effect; tags describe the fitted curve by direction and shape.

| Compound | Potency | activity change, negative = inhibition |
| --- | --- | --- |
| O=C(CN1CCN(c2ccccc2F)CC1)c1c[nH]c2ccccc12 | inconclusive [inhibitor, partial curve] | – |
| COc1ccc(CNC(=S)N/N=C/c2ccc(O)c(OC)c2)cc1 | inconclusive [inhibitor, single point] | – |
| COc1ccc(NC(=O)c2c(N)no[n+]2[O-])cc1 | inconclusive [inhibitor, full curve, poor fit] | – |
| CCOC(=O)[C@]12CCCC=C1N(Cc1ccc(Cl)cc1Cl)C(=O)[C@H](CC(=O)NCc1ccccc1)C2 | inconclusive [inhibitor, single point] | – |
| Cc1cc(C)nc(NNC2=CC(=[N+]3CCCCC3)CC(C)(C)C2)n1 | inconclusive [inhibitor, single point] | – |
| CC1CCCN(CCCN2C(=O)C3C(C(=O)Nc4cccc(Cl)c4)C4C=CC3(O4)C2C(=O)NC2CCCCC2)C1 (stereo unspecified) | inconclusive [inhibitor, partial curve, poor fit] | – |
| Cc1ccc(S(=O)(=O)NC(=O)COc2ccc(Cl)cc2Cl)cc1 | inconclusive [inhibitor, single point] | – |
| CCOC(=O)C1C(=O)NC(c2ccccc2)=NC1c1ccc(Br)cc1 (stereo unspecified) | inconclusive [inhibitor, single point] | – |
| Cc1ccc(S(=O)(=O)N2CCCN(c3nc4cc(C)ccc4cc3C#N)CC2)cc1 | – | inactive: 0% |
| CCN(CC)S(=O)(=O)c1ccc2c(c1)nc(SCC(=O)N1CCCCCC1)n2-c1ccc(OC)cc1 | inconclusive [inhibitor, single point] | – |
| CCOC(=O)c1cc(-c2ccccc2)nn1CC1CC(c2ccc(Cl)cc2)=NO1 (stereo unspecified) | inconclusive [inhibitor, single point] | – |
| COn1c(SCc2cccc(Cl)c2)nc2ccccc2c1=O | inconclusive [inhibitor, single point] | – |
| COc1ccccc1/C=C/C(=O)NC(=S)Nc1ccccn1 | – | inactive: 30.3% |
| CCCCN(CCCC)Cc1cc(=O)oc2cc(OC)ccc12 | inconclusive [inhibitor, partial curve, poor fit] | – |
| COc1cc(OC)cc(C(=O)N[C@H](C(=O)Nc2cc(F)ccc2C)C(C)C)c1 | inconclusive [inhibitor, full curve, poor fit] | – |
| O=C(CSc1ccc([N+](=O)[O-])cc1)Nc1cccc(S(=O)(=O)Nc2ccccc2F)c1 | inconclusive [inhibitor, single point] | – |
| COc1ccc(-c2cc(=O)c3ccccc3o2)cc1 | – | inactive: 16% |
| CCN(CC)S(=O)(=O)c1ccc(NC(=O)Cc2cccs2)cc1 | inconclusive [inhibitor, single point] | – |
| COc1ccccc1N1CCN(C(=O)C2CCCCN2S(=O)(=O)c2ccc(C)cc2)CC1 (stereo unspecified) | inconclusive [inhibitor, single point] | – |
| C[C@H](NC(=O)C1CCN(S(=O)(=O)c2ccccc2)CC1)C(=O)NCc1ccc(Cl)cc1Cl | inconclusive [inhibitor, partial curve, poor fit] | – |
| O=C(CSc1c2c(nc3ccc(Cl)cc13)CCCC2)N1CCN(C(=O)c2ccco2)CC1 | inconclusive [inhibitor, single point] | – |

| Compound | Potency | activity change, negative = inhibition |
| --- | --- | --- |
| O=C(NCc1cc(C(F)(F)F)cc(C(F)(F)F)c1)C1CC(c2c(Cl)cccc2Cl)=NO1 (stereo unspecified) | inconclusive [inhibitor, single point] | – |
| Cc1ccccc1C(=O)NC1CC2CCCC(C1)N2CC(C)C (stereo unspecified) | – | inactive: -6.4% |
| CC(=O)OCC(=O)C1(O)CCC2C3CCC4=CC(=O)CCC4(C)C3(Cl)C(O)CC21C (stereo unspecified) | inconclusive [inhibitor, partial curve, poor fit] | – |
| O=[N+]([O-])c1cc(S(=O)(=O)Nc2cccc(Cl)c2)ccc1N=Nc1c(O)[nH]c2ccccc12 | inconclusive [inhibitor, partial curve, poor fit] | – |
| COc1ccc(N(C(=O)COc2ccccc2OC)S(=O)(=O)c2ccc(C)cc2)cc1 | inconclusive [inhibitor, partial curve] | – |
| Cc1ccc(CN2CCN(CC(=O)NC(C)c3ccc4c(c3)OCCO4)C2=O)cc1 (stereo unspecified) | inconclusive [inhibitor, partial curve, poor fit] | – |
| O=C(c1cc(COc2ccc(F)cc2Cl)on1)N1CCCCCCC1 | inconclusive [inhibitor, partial curve, poor fit] | – |
| O=C(NCc1cccc(C(F)(F)F)c1)c1cccc(Cl)c1Cl | inconclusive [inhibitor, single point] | – |
| O=C(CCNS(=O)(=O)c1cccc2nonc12)NCCc1ccc(Cl)cc1 | inconclusive [inhibitor, single point] | – |
| Cc1ccc(-c2nc3cc(N)ccc3o2)cc1 | inconclusive [inhibitor, partial curve, poor fit] | – |
| CCOC(=O)c1sc(=NC(=O)c2ccco2)n(C)c1C | – | inactive: 2.11% |
| COc1ccc(C(CNC(=O)c2cccc(S(=O)(=O)NCc3ccccc3)c2)N(C)C)cc1 (stereo unspecified) | – | inactive: -26.3% |
| O=C(Nc1nc2ccccc2[nH]1)c1ccc(Br)o1 | inconclusive [inhibitor, single point] | – |
| CCOc1ccc(-c2nc(C#N)c(NCc3ccc4c(c3)OCO4)o2)cc1 | – | inactive: 8.75% |
| CCc1cc(C(=O)N2CCCC(C(=O)c3ccc(C(F)(F)F)cc3)C2)n(C)n1 (stereo unspecified) | inconclusive [inhibitor, partial curve, poor fit] | – |
| CCCN1C(=O)C(O)(c2c(C)[nH]c3ccccc23)c2ccccc21 (stereo unspecified) | inconclusive [inhibitor, partial curve, poor fit] | – |
| C(#CC12CC3CC(CC(C3)C1)C2)CN1CCOCC1 | – | inactive: -9.73% |
| Cc1ccc(CNC(=O)c2c[nH]c3ccc(S(=O)(=O)Nc4ccc(C(C)C)cc4)cc3c2=O)cc1 | inconclusive [inhibitor, single point] | – |
| CCc1ccc(C(=O)CN2C(=O)NC3(CCOc4ccccc43)C2=O)s1 (stereo unspecified) | inconclusive [inhibitor, single point] | – |
| CC1(C(=O)Nc2ccccc2)CCN1C(=O)Cc1ccc(-c2ccccc2)cc1 (stereo unspecified) | inconclusive [inhibitor, single point] | – |
| CC(=O)Nc1ccc(S(=O)(=O)N2c3ccccc3C(C)=CC2(C)C)cc1 | inconclusive [inhibitor, full curve, poor fit] | – |

| Compound | Potency | activity change, negative = inhibition |
| --- | --- | --- |
| Fc1ccccc1CNc1nc(-c2cccnc2)nc2ccccc12 | inconclusive [inhibitor, single point] | – |
| COc1ccc(C(=O)N(C)c2ccccc2C(=O)NCCc2ccccc2)cc1 | inconclusive [inhibitor, partial curve, poor fit] | – |
| COc1cc(NC(=O)C(NC(=O)C2CCC(C)CC2)C(C)C)cc(OC)c1OC (stereo unspecified) | – | inactive: 4.11% |
| C#CCN(C[C@H]1[C@H](OC(=O)NC2CCCC2)[C@H](OC(=O)NC2CCCC2)C[C@@H](C(=O)OC)[C@H]1C(=O)OC)S(=O)(=O)c1ccc(C)cc1 | inconclusive [inhibitor, single point] | – |
| C(=C\c1ccccc1)/C=N/N1CCN(Cc2ccccc2)CC1 | inconclusive [inhibitor, partial curve, poor fit] | – |
| CCCNc1nc(-c2ccccc2)c(C(=O)OCC)cc1C#N | inconclusive [inhibitor, partial curve, poor fit] | – |
| Oc1cccc(-c2csc(C(O)(c3ccccc3)C(F)(F)F)n2)c1 (stereo unspecified) | inconclusive [inhibitor, single point] | – |
| CCCC(CNC(C)=O)(C1=CCCCC1)c1ccccc1 (stereo unspecified) | inconclusive [inhibitor, full curve] | – |
| CC1Cc2ccccc2N1S(=O)(=O)c1nnc(NC(=O)c2ccccc2Br)s1 (stereo unspecified) | active: 10 µM | – |
| O=C(CNC(=O)c1ccccc1)OC1CCCCC1 | inconclusive [inhibitor, partial curve, poor fit] | – |
| COc1ccc(-c2csc(NC(=O)CC(C)C)n2)cc1 | inconclusive [inhibitor, partial curve, poor fit] | – |
| COc1cccc(NC(=O)Nc2nnc(CC(=O)Nc3ccccc3)s2)c1 | inconclusive [inhibitor, partial curve, poor fit] | – |
| CC1(C(=O)NS(=O)(=O)c2ccc(Cl)cc2)CCN1C(=O)C1(c2ccccc2)CCCC1 (stereo unspecified) | inconclusive [inhibitor, partial curve, poor fit] | – |
| COc1ccc2ccccc2c1CN1CCCC(CO)C1 (stereo unspecified) | – | inactive: -9.49% |
| CC(C)Oc1ccc(C(=O)Nc2ccc3oc(-c4ccncc4)nc3c2)cc1 | – | inactive: 8.15% |
| COc1ccc(NC(=O)CSc2nc3n[nH]c(C)c3c(=N)n2-c2ccc(Cl)c(C)c2)cc1OC | inconclusive [inhibitor, single point] | – |
| O=C(Nc1ccccc1)C1=C[C@H](c2csc3ccccc23)C[C@H](OCCCCO)O1 | inconclusive [inhibitor, single point] | – |
| O=C(CN1CCN(c2ccc(O)cc2)CC1)Nc1ccc(-c2ccccc2)cc1 | inconclusive [inhibitor, partial curve, poor fit] | – |
| CCCCN(CC)CCCNC(=O)c1cn(CC(C)C)c(=O)c2c1c1ccccc1n2C | inconclusive [inhibitor, single point] | – |
